Experimental data reported in PubChem BioAssay AID1956 (SRMLSC, 2009).
The other results are listed elsewhere or left out. Shown are side measurements of this screen, not its main read-out; they come without a call.

assay: compounds boosting herpes simplex virus growth – fold increase, host cell viability (AID 1956); conditions: HSV replication augmentation in cells; fold increase: measured here: primary screen fold increase 10 uM, at 10 µM, stronger effect = higher value; viability: measured here: host cell viability series, at 25 µM, stronger effect = lower value; note: tested in PC3 cells

**Q.** What does the source list for `COc1cccc(N2CCN(Cc3nc4scc(-c5ccccc5)c4c(=O)[nH]3)CC2)c1`?
**A.** fold increase: 1.75; viability: 55.1%

**Q.** With `CCOC(=O)C(NC(=O)c1cccc(Cl)c1)(Nc1sc2c(c1C(N)=O)CCC2)C(F)(F)F` (centres undefined) as the molecule, how does the fold increase read?
**A.** The fold increase was 1.42.

**Q.** What about the viability of the same molecule?
**A.** Its viability is 97.6%.

**Q.** For `CCCNC(=O)Cn1cnc2sc(C(=O)Nc3ccc4c(c3)OCO4)c(C)c2c1=O`, which fold increase is on record?
**A.** The fold increase was 1.32.

**Q.** What does the source list for `N#Cc1ccc(-c2ccc(Cl)cc2)nc1SCC(=O)c1cccc(Cl)c1`?
**A.** fold increase: 1.57; viability: 48.4%

**Q.** Which fold increase does the source give for `CCn1c(/C=C/N(C)c2ccccc2)[n+](CC)c2ccc(Cl)cc21` here?
**A.** Its fold increase is 1.36.

**Q.** And the viability?
**A.** Its viability is 33%.

**Q.** With `CCOC(=O)c1cnc2c(OC)cccc2c1N1CCN(c2ccc(OC)cc2)CC1` as the molecule, how does the fold increase read?
**A.** The fold increase was 1.15.

**Q.** Which fold increase does the source give for `O=C(CN(Cc1cccs1)C(=O)CNS(=O)(=O)c1ccc(F)cc1)NCC1CCCO1` (centres undefined) here?
**A.** The fold increase was 1.64.

**Q.** And the viability?
**A.** Its viability is 92.7%.

**Q.** Which fold increase does the source give for `CN(/C=C/C(=C/C=[N+](C)c1ccccc1)OCCCS(=O)(=O)[O-])c1ccccc1` here?
**A.** Its fold increase is 1.96.

**Q.** And the viability?
**A.** Its viability is 105%.

**Q.** For `CN(C)c1ccc(/C=C/C(O)=C2/C(=O)N(C)C3(C)CC2c2ccccc2O3)cc1` (centres undefined), which fold increase is on record?
**A.** Its fold increase is 1.33.

**Q.** Which results are given for `CN1/C(=C\C=C(C#N)C#N)C(C)(C)c2ccccc21`?
**A.** fold increase: 7.58; viability: 101%

**Q.** Which fold increase does the source give for `CC(C)=CCC/C(C)=C/C=N/NC(=O)c1ccccc1[N+](=O)[O-]` here?
**A.** The fold increase was 1.33.

**Q.** What about the viability of the same molecule?
**A.** The viability was 94.5%.

**Q.** With `Cn1nc(-c2ccccc2)c2nc3ccccc3nc21` as the molecule, how does the fold increase read?
**A.** The fold increase was 1.94.

**Q.** What about the viability of the same molecule?
**A.** The viability was 98%.

**Q.** Which fold increase does the source give for `N#CC1=C(N)SC(N)=C(C#N)C1c1c(Cl)cccc1Cl` here?
**A.** The fold increase was 1.41.

**Q.** And the viability?
**A.** Its viability is 104%.

**Q.** With `Cc1cccc(NC(=O)CN2C(=O)N/C(=C/c3ccc(C)o3)C2=O)c1` as the molecule, how does the fold increase read?
**A.** The fold increase was 1.43.

**Q.** And the viability?
**A.** Its viability is 94.1%.

**Q.** Which fold increase does the source give for `N#C/C(=C\c1ccc(Sc2ccc(Cl)cc2)o1)c1nc2ccccc2[nH]1` here?
**A.** Its fold increase is 1.68.

**Q.** And the viability?
**A.** Its viability is 81.2%.

**Q.** With `C=CCn1c(=O)/c(=C/c2cc(OC)c(OC)c(OC)c2)s/c1=C(/C#N)c1nc2ccccc2n1C` as the molecule, how does the fold increase read?
**A.** The fold increase was 4.6.

**Q.** And the viability?
**A.** The viability was 72.9%.

**Q.** Which fold increase does the source give for `Oc1ccc2ccc3cccc[n+]3c2c1` here?
**A.** The fold increase was 2.92.

**Q.** And the viability?
**A.** Its viability is 96.2%.

**Q.** For `COC(=O)C(NC(C)=O)(Nc1ccc(C)cn1)C(F)(F)F` (centres undefined), which fold increase is on record?
**A.** Its fold increase is 1.38.

**Q.** And the viability?
**A.** The viability was 92.4%.

**Q.** Which fold increase does the source give for `O=C(c1ccccc1)c1ccc(O)cc1O` here?
**A.** The fold increase was 1.83.

**Q.** And the viability?
**A.** Its viability is 103%.

**Q.** With `NS(=O)(=O)c1ccc(N=Nc2c[nH]c(=O)c(O)c2)cc1` as the molecule, how does the fold increase read?
**A.** Its fold increase is 1.53.

**Q.** What about the viability of the same molecule?
**A.** Its viability is 90.8%.

**Q.** With `COc1ccc(S(=O)(=O)/N=C2/NC(=O)/C(=C\c3ccco3)S2)cc1` as the molecule, how does the fold increase read?
**A.** Its fold increase is 1.33.

**Q.** What about the viability of the same molecule?
**A.** The viability was 93.3%.

**Q.** Which fold increase does the source give for `CCOC(=O)C(C(=O)OCC)c1cc(Br)c2noc3c2c1C(=O)c1ccccc1-3` here?
**A.** The fold increase was 2.98.

**Q.** What about the viability of the same molecule?
**A.** The viability was 65.1%.

**Q.** Which results are given for `CCOC(=O)c1cnc2c(F)ccc(F)c2c1Sc1ccccc1`?
**A.** fold increase: 1.36; viability: 89.6%

**Q.** Which results are given for `C=CCN1C(=O)C(CC(=O)O)SC1=Nc1ccc(C)cc1` (centres undefined)?
**A.** fold increase: 1.35; viability: 97%

**Q.** With `O=C(/C=C/c1cn(CC(O)CN2CCOCC2)c2ccccc12)c1cccs1` (centres undefined) as the molecule, how does the fold increase read?
**A.** Its fold increase is 1.72.

**Q.** And the viability?
**A.** The viability was 90.1%.

**Q.** Which fold increase does the source give for `COC(=O)c1cc2c(C)cc3ccc(C)cn3c-2c1C(=O)OC` here?
**A.** The fold increase was 1.35.

**Q.** And the viability?
**A.** The viability was 91.5%.

**Q.** For `CCC1=NN2C(=N)/C(=C\c3ccc(SCc4ccco4)o3)C(=O)N=C2S1`, which fold increase is on record?
**A.** The fold increase was 1.48.

**Q.** What about the viability of the same molecule?
**A.** Its viability is 103%.

**Q.** For `NCCNc1ccc([N+](=O)[O-])cc1`, which fold increase is on record?
**A.** The fold increase was 1.37.

**Q.** And the viability?
**A.** Its viability is 100%.

**Q.** With `CCN(CC)c1ccc(/C=C(\C#N)C(=O)NCc2ccco2)cc1` as the molecule, how does the fold increase read?
**A.** The fold increase was 2.55.

**Q.** And the viability?
**A.** Its viability is 93.4%.

**Q.** With `CCCN1C(=O)S/C(=C\c2ccc(N3CCOCC3)cc2C)C1=O` as the molecule, how does the fold increase read?
**A.** Its fold increase is 2.14.

**Q.** What does the source list for `O=C(Nc1nnc(COc2ccccc2F)s1)Nc1ccccc1F`?
**A.** fold increase: 1.39; viability: 99.6%

**Q.** For `CC(=O)/C(N=Nc1cc(C)ccc1O)=C(\C)O`, which fold increase is on record?
**A.** Its fold increase is 1.38.

**Q.** And the viability?
**A.** The viability was 93.6%.

**Q.** What does the source list for `C=C1CCN([C@@H](C)C(=O)NCCCCCC)S(=O)(=O)c2ccccc21`?
**A.** fold increase: 1.34; viability: 99.2%

**Q.** What does the source list for `O=C(N/N=C/c1c(O)n(-c2ccc(Cl)cn2)c(=O)c2ccccc12)c1ccncc1`?
**A.** fold increase: 1.91; viability: 96.4%

**Q.** With `COc1ccccc1N=Cc1c(C)c(C#N)c2[nH]c3ccccc3n2c1=O` as the molecule, how does the fold increase read?
**A.** Its fold increase is 1.34.

**Q.** And the viability?
**A.** The viability was 102%.

**Q.** With `Cc1ccc(N2C(=O)[C@@H]3[C@H](C2=O)C2c4ccccc4C=CN2[C@@H]3C(=O)c2ccco2)cc1` (some centres undefined) as the molecule, how does the fold increase read?
**A.** Its fold increase is 1.35.

**Q.** What does the source list for `CC(=O)/C(C#N)=C1\NC(=O)C(Cc2ccc(F)cc2)S1` (centres undefined)?
**A.** fold increase: 1.39; viability: 96.3%

**Q.** For `Nc1c(C(=O)c2ccc(Cl)cc2)sc2nsc(SCCN3CCOCC3)c12`, which fold increase is on record?
**A.** Its fold increase is 2.98.

**Q.** What about the viability of the same molecule?
**A.** The viability was 97.3%.

**Q.** With `CCOC(=O)c1c(-c2ccccc2)csc1NC(=O)/C(C#N)=C/c1ccc(O)c(OC)c1` as the molecule, how does the fold increase read?
**A.** The fold increase was 5.9.

**Q.** What about the viability of the same molecule?
**A.** Its viability is 90.3%.

**Q.** For `N#Cc1cccc(NC(=O)CSc2ccc3c4c(cccc24)C(=O)c2ccccc2-3)c1`, which fold increase is on record?
**A.** The fold increase was 2.09.

**Q.** What about the viability of the same molecule?
**A.** The viability was 47.8%.

**Q.** With `Cc1ccc(-c2cccc(C(=O)NCc3ccccc3)n2)c2ccccc12` as the molecule, how does the fold increase read?
**A.** The fold increase was 1.42.

**Q.** And the viability?
**A.** The viability was 98%.

**Q.** Which fold increase does the source give for `C=CCOC(=O)C1=C(C)NC(SCC(=O)Nc2nccs2)=C(C#N)C1c1ccc(Cl)cc1` (centres undefined) here?
**A.** The fold increase was 1.58.

**Q.** Which fold increase does the source give for `Cc1c(C(=O)Nc2ccc(F)cc2)c2ccccn2c1CCc1ccncc1` here?
**A.** The fold increase was 1.45.

**Q.** With `Cc1nnc(-c2cccc(Br)c2)c2cn(-c3ccccc3)nc12` as the molecule, how does the fold increase read?
**A.** The fold increase was 1.94.

**Q.** And the viability?
**A.** The viability was 87.8%.

**Q.** Which fold increase does the source give for `C=CCN1C(=O)C2(c3ccccc31)C1CCCC=C1C(C#N)=C(N)C2(C#N)C#N` (centres undefined) here?
**A.** The fold increase was 1.05.

**Q.** For `Cc1ccc(S(=O)(=O)c2c(N)n(Cc3ccco3)c3nc4ccccc4nc23)cc1`, which fold increase is on record?
**A.** Its fold increase is 2.21.

**Q.** And the viability?
**A.** The viability was 79.7%.
